# Source: the supplement of paper PMC10986608
# This is one part of the list. Single values are uncertain, as repeats are few or missing.
# System: Candida albicans DPL-15
# Assay: growth (OD600) after compound treatment (apparently relative to screen median) (relative growth (fraction; screen median 1.02)); DPL-15 is a caspofungin-resistant clinical isolate; higher = more fungal growth (less antifungal activity)
# Conditions: 25 µM; RPMI 1640; 48 h; 30 °C
row,Compound,growth
1,CCCCc1n[nH]c2c1C(c1ccc(F)cc1)N(c1ccc(OC)cc1)C2=O (stereo unspecified),1.35
2,COC(=O)Cc1nnn2c1CC(OC)c1cc(Br)ccc1-2 (stereo unspecified),1.03
3,O=C(/C=C/c1ccccc1)Nc1ccc2c(=O)c(Cc3cccs3)coc2c1,1.13
4,C#CCOc1ccccc1CN,1.03
5,COC(=O)C1=C(C)N(Cc2ccc(C(F)(F)F)cc2)C(NCC(C)C)=NC1c1ccccc1 (stereo unspecified),0.924
6,Cc1ccc(C2NC(=O)C3=C2C(C(C)C)=NCCN3)cc1 (stereo unspecified),1.11
7,CC(C)C[C@H]1NC(=O)C[C@H]2C[C@H](C)[C@H](c3ccccc3)N2C1=O,0.982
8,C#CCOC(CNC(=O)OC(C)(C)C)CNC(=O)OC(C)(C)C,1.02
9,CCOC(=O)COc1ccc(CC=C(C)C)c2c(=O)c3c(OC)cc(OC)cc3oc12,1.02
10,CN(Cc1ccccc1)C(=O)c1c(O)cc(O)cc1CC(=O)C1CCCCC1,1.01
11,CC(C)C1=NCCN(C)C2=C1C(c1ccc(Br)cc1)N(Cc1ccccc1)C2=O (stereo unspecified),0.951
12,Cc1cc(C)cc(-n2nc(CC(C)C)c3c2C(=O)NC3c2ccc(F)cc2)c1 (stereo unspecified),1.07
13,C=CCN1C(=O)C2=C(C(C)=NCC(C)(C)N2)C1c1ccccc1 (stereo unspecified),1.14
14,C=CCN1C(=O)C2=C(C(c3ccccc3)=NCC(C)(C)N2)C1c1cccc(C(F)(F)F)c1 (stereo unspecified),1.05
15,COC(=O)[C@@H](Cc1ccccc1)N[C@H](/C=C/c1ccccc1)[C@@H](O)Cc1ccccc1,1.09
16,CO[C@@H]1[C@H](O)CC[C@]2(O)CN(CCCN3CCCC3=O)[C@](C)([C@H](O)CC=C(C)C)[C@@H]12,1.04
17,O=C(c1c(O)cc(O)cc1Nc1ccnn1Cc1ccoc1)N1Cc2cn[nH]c2C1,0.953
18,CCC(=O)O[C@@H]1CCC(OC)=C2C(=O)c3c(ccc(I)c3O)O[C@]21C(=O)OC,0.984
19,COc1ccc([C@@H]2[C@@H](C(=O)NCc3ccccc3)[C@@H](C(=O)NCc3ccccc3)[C@@H]2c2ccc(OC)c(OC)c2)cc1OC,0.971
20,CCC1(Cc2occc(=O)c2OS(C)(=O)=O)C(c2ccccc2)=Nc2ccccc21 (stereo unspecified),1.36
21,c1csc([C@H]2c3cc4c(cc3O[C@H]3c5ccccc5C[C@@H]23)OCO4)c1,1.13
22,O=C(Cc1ccc([N+](=O)[O-])cc1)N1CCc2ccccc2C1,1.03
23,O=C(/C=C/c1ccccc1OC/C=C/c1ccccc1)c1ccccc1O,1.08
24,C=CCN1C(=O)C2=C(C(C(C)C)=NCC(C)(C)N2)C1c1cccc(C(F)(F)F)c1 (stereo unspecified),1.04
25,COc1ccc(-c2ccc(O)c(C(C)=O)c2)cc1,1.02
26,COCOc1cc(OC)cc(O)c1C(=O)/C=C/c1cccs1,1.22

row,Compound,growth
1,COc1ccccc1Cn1nc(CC(C)C)c2c1C(=O)NC2c1ccccc1 (stereo unspecified),1.06
2,CC(=O)OC[C@H]1O[C@H](C#Cc2ccc(C)cc2)C=C[C@H]1OC(C)=O,0.938
3,COC(=O)C1=C[C@H]([C@H](C)[C@@H](OC)c2ccccc2Br)[C@H]2OCC[C@@H]12,1.06
4,COC(=O)c1cc2c(c3c4cc(OC)ccc4n(S(=O)(=O)c4ccc(OC)cc4)c13)C(=O)N(Cc1ccc(C(F)(F)F)cc1)C2,1.1
5,Nc1ccc(CCN2Cc3ccccc3C2)cc1,1.06
6,CO[C@@H]1[C@H](O)CC[C@]2(O)CN(c3cccc(F)c3)[C@@H](CC=C(C)C)[C@](C)(O)[C@@H]12,1.07
7,CC(C)=CCc1cc(OCC(=O)NCC(=O)NCc2ccccc2)cc2oc3cccc(O)c3c(=O)c12,1.07
8,CC1=CC2=C[C@@H](O)C[C@@H](C)[C@]2(O)[C@@H]2CCC3(OCCO3)[C@@]2(O[Si](C)(C)C)C1,1.25
9,COCCN1C(=S)NC(c2ccc(OC)cc2)C(C(=O)OC)=C1C (stereo unspecified),1.19
10,CNc1cc(OC)cc(OC)c1C(=O)OCC(=O)c1cccc(N2CCOCC2)c1,1.08
11,COCC1=Cc2cc3c(cc2C(C(C(=O)OC)C(=O)OC)N1C(=O)OC)OCO3 (stereo unspecified),1.05
12,COC[C@H]1O[C@H](c2ccccc2)C=C[C@@H]1OCC#Cc1cc(Cl)ccc1N,0.874
13,C=CC[C@]12C[C@@]3(O[C@H](C(CC)CC)N=C3C[C@H](c3ccc(OC)cc3)[C@H]1C)N(Cc1cccs1)C2=O,0.912
14,COc1ccc(Cn2nc(-c3ccoc3)cc2Nc2cc(O)cc(O)c2C(=O)N2Cc3cccnc3C2)cc1,1.1
15,COC(=O)C1=C(C(=O)OC)[C@@H]2Nc3ccccc3[C@@]23C[C@@H](C(=O)OC)N(C(C)=O)C3=N1,0.983
16,COc1ccc([C@@]23Oc4cc(OC)cc(OC)c4[C@]2(O)C=C(C(=O)c2ccco2)[C@H]3c2ccccc2)cc1,1.06
17,COc1ccc(CCn2ccc([N+](=O)[O-])n2)cc1,0.925
18,C[C@H]1NC(=O)C[C@H]2C[C@H](C)[C@H](c3ccccc3)N2C1=O,1.98
19,COc1ccc(Cn2nc(C(C)(C)C)cc2N)cc1,1.18
20,CC(C)[C@@H](COS(=O)(=O)NCC(F)(F)F)N1C(=O)c2ccccc2C1=O,1.07
21,CC(C)CC1=NCCN(C)C2=C1C(c1ccccc1)N(Cc1ccccc1)C2=O (stereo unspecified),0.962
22,CCc1cc(Nc2cc(O)cc(O)c2C(=O)N2Cc3cccnc3C2)n(Cc2ccc(OC)cc2)n1,0.967
23,Cn1c(-c2ccc(N3CCOCC3)cc2)c(O)c(=O)c2c(F)cccc21,1.02
24,C=CCC[C@@H](O)COc1cc2c(cc1C1(c3cc4c(cc3OC[C@H](O)CCC=C)OCO4)C(=O)Nc3cc(Br)ccc31)OCO2,1.01
25,CO[C@@H]1[C@H](O)CC[C@]2(O)CN(c3ccc(C)c(Br)c3)[C@@H](CC=C(C)C)[C@](C)(O)[C@@H]12,0.845
